These results are taken from the supplement of paper PMC8728848.

Common to all, as to test: glycan array binding signal (z-score within array); higher = stronger binding
Common to all, as to details: glycan notation: IUPAC condensed, linker removed

In experiment [1] the target is Gal(b1-4)GlcNAc(b1-2)[Gal(b1-4)GlcNAc(b1-6)]Man(a1-6)[GlcNAc(b1-4)][Gal(b1-4)GlcNAc(b1-2)Man(a1-3)]Man(b1-4)GlcNAc(b1-4)GlcNAc. In a few lines:
(§1)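 Glycan array data came from 3228 arrays in the Consortium for Functional Glycomics database, and only arrays with an available protein sequence were kept. Glycan names were put into IUPAC-condensed notation, and columns mapping to the same glycan were averaged. The binding signal is a within-array Z-score, averaged across arrays of one protein sequence run at different concentrations or buffers and across linkers. A negative Z-score can be read as non-binding.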

In experiment [2] the target is Gal(b1-4)GlcNAc(b1-2)[Gal(b1-4)GlcNAc(b1-6)]Man(a1-6)[GlcNAc(b1-4)][Gal(b1-4)GlcNAc(b1-2)[Gal(b1-4)GlcNAc(b1-4)]Man(a1-3)]Man(b1-4)GlcNAc(b1-4)[Fuc(a1-6)]GlcNAc. An outline of the steps:
as §1

The target of experiment [3] is Gal(b1-4)GlcNAc(b1-3)Gal(b1-3)GalNAc. In a few lines:
as §1

The target of experiment [4] is Gal(b1-4)GlcNAc(b1-3)Gal(b1-3)GlcNAc. In a few lines: as §1
Experiment [5] concerns the target Gal(b1-4)GlcNAc(b1-3)Gal(b1-4)Glc. An outline of the steps: as §1
Experiment [6] addresses Gal(b1-4)GlcNAc(b1-3)Gal(b1-4)GlcNAc. In a few lines: as §1
In experiment [7] the target is Gal(b1-4)GlcNAc(b1-3)Gal(b1-4)GlcNAc(b1-2)Man(a1-3)[Gal(b1-4)GlcNAc(b1-3)Gal(b1-4)GlcNAc(b1-2)Man(a1-6)]Man(b1-4)GlcNAc(b1-4)GlcNAc. In a few lines:
as §1

Experiment [8] concerns the target Gal(b1-4)GlcNAc(b1-3)Gal(b1-4)GlcNAc(b1-2)Man(a1-3)[Gal(b1-4)GlcNAc(b1-3)Gal(b1-4)GlcNAc(b1-2)Man(a1-6)]Man(b1-4)GlcNAc(b1-4)[Fuc(a1-6)]GlcNAc. In a few lines:
as §1

In experiment [9] the target is Gal(b1-4)GlcNAc(b1-3)Gal(b1-4)GlcNAc(b1-2)[Gal(b1-4)GlcNAc(b1-3)Gal(b1-4)GlcNAc(b1-6)]Man(a1-6)[Gal(b1-4)GlcNAc(b1-3)Gal(b1-4)GlcNAc(b1-2)Man(a1-3)]Man(b1-4)GlcNAc(b1-4)GlcNAc. An outline of the steps: as §1
Experiment [10] addresses Gal(b1-4)GlcNAc(b1-3)Gal(b1-4)GlcNAc(b1-2)[Gal(b1-4)GlcNAc(b1-3)Gal(b1-4)GlcNAc(b1-6)]Man(a1-6)[Gal(b1-4)GlcNAc(b1-3)Gal(b1-4)GlcNAc(b1-2)Man(a1-3)]Man(b1-4)GlcNAc(b1-4)[Fuc(a1-6)]GlcNAc. In a few lines: as §1
In experiment [11] the target is Gal(b1-4)GlcNAc(b1-3)Gal(b1-4)GlcNAc(b1-3)Gal(b1-4)GlcNAc. In a few lines: as §1
Experiment [12] concerns the target Gal(b1-4)GlcNAc(b1-3)Gal(b1-4)GlcNAc(b1-3)Gal(b1-4)GlcNAc(b1-2)Man(a1-3)[Gal(b1-4)GlcNAc(b1-3)Gal(b1-4)GlcNAc(b1-3)Gal(b1-4)GlcNAc(b1-2)Man(a1-6)]Man(b1-4)GlcNAc(b1-4)GlcNAc. An outline of the steps: as §1
The target in experiment [13] is Gal(b1-4)GlcNAc(b1-3)Gal(b1-4)GlcNAc(b1-3)Gal(b1-4)GlcNAc(b1-2)Man(a1-3)[Gal(b1-4)GlcNAc(b1-3)Gal(b1-4)GlcNAc(b1-3)Gal(b1-4)GlcNAc(b1-2)Man(a1-6)]Man(b1-4)GlcNAc(b1-4)[Fuc(a1-6)]GlcNAc. In a few lines:
as §1

In experiment [14] the target is Gal(b1-4)GlcNAc(b1-3)Gal(b1-4)GlcNAc(b1-3)Gal(b1-4)GlcNAc(b1-2)[Gal(b1-4)GlcNAc(b1-3)Gal(b1-4)GlcNAc(b1-3)Gal(b1-4)GlcNAc(b1-6)]Man(a1-6)[Gal(b1-4)GlcNAc(b1-3)Gal(b1-4)GlcNAc(b1-3)Gal(b1-4)GlcNAc(b1-2)Man(a1-3)]Man(b1-4)GlcNAc(b1-4)[Fuc(a1-6)]GlcNAc. In a few lines:
as §1

Experiment [15] deals with Gal(b1-4)GlcNAc(b1-3)Gal(b1-4)GlcNAc(b1-3)Gal(b1-4)GlcNAc(b1-3)Gal(b1-4)GlcNAc(b1-2)Man(a1-3)[Gal(b1-4)GlcNAc(b1-3)Gal(b1-4)GlcNAc(b1-3)Gal(b1-4)GlcNAc(b1-3)Gal(b1-4)GlcNAc(b1-2)Man(a1-6)]Man(b1-4)GlcNAc(b1-4)GlcNAc. An outline of the steps:
as §1

Experiment [16] concerns the target Gal(b1-4)GlcNAc(b1-3)Gal(b1-4)GlcNAc(b1-3)Gal(b1-4)GlcNAc(b1-3)Gal(b1-4)GlcNAc(b1-2)Man(a1-3)[Gal(b1-4)GlcNAc(b1-3)Gal(b1-4)GlcNAc(b1-3)Gal(b1-4)GlcNAc(b1-3)Gal(b1-4)GlcNAc(b1-2)Man(a1-6)]Man(b1-4)GlcNAc(b1-4)[Fuc(a1-6)]GlcNAc. In a few lines: as §1
In experiment [17] the target is Gal(b1-4)GlcNAc(b1-3)Gal(b1-4)GlcNAc(b1-3)Gal(b1-4)GlcNAc(b1-3)Gal(b1-4)GlcNAc(b1-2)[Gal(b1-4)GlcNAc(b1-3)Gal(b1-4)GlcNAc(b1-3)Gal(b1-4)GlcNAc(b1-3)Gal(b1-4)GlcNAc(b1-6)]Man(a1-6)[Gal(b1-4)GlcNAc(b1-3)Gal(b1-4)GlcNAc(b1-3)Gal(b1-4)GlcNAc(b1-3)Gal(b1-4)GlcNAc(b1-2)Man(a1-3)]Man(b1-4)GlcNAc(b1-4)[Fuc(a1-6)]GlcNAc. In a few lines: as §1
The target of experiment [18] is Gal(b1-4)GlcNAc(b1-3)Gal(b1-4)GlcNAc(b1-3)Gal(b1-4)GlcNAc(b1-3)Gal(b1-4)GlcNAc(b1-3)Gal(b1-4)GlcNAc(b1-2)Man(a1-3)[Gal(b1-4)GlcNAc(b1-3)Gal(b1-4)GlcNAc(b1-3)Gal(b1-4)GlcNAc(b1-3)Gal(b1-4)GlcNAc(b1-3)Gal(b1-4)GlcNAc(b1-2)Man(a1-6)]Man(b1-4)GlcNAc(b1-4)GlcNAc. An outline of the steps:
as §1

The target in experiment [19] is Gal(b1-4)GlcNAc(b1-3)Gal(b1-4)GlcNAc(b1-3)Gal(b1-4)GlcNAc(b1-3)Gal(b1-4)GlcNAc(b1-3)Gal(b1-4)GlcNAc(b1-2)Man(a1-3)[Gal(b1-4)GlcNAc(b1-3)Gal(b1-4)GlcNAc(b1-3)Gal(b1-4)GlcNAc(b1-3)Gal(b1-4)GlcNAc(b1-3)Gal(b1-4)GlcNAc(b1-2)Man(a1-6)]Man(b1-4)GlcNAc(b1-4)[Fuc(a1-6)]GlcNAc. In a few lines:
as §1

Some of the results follow.

B1: PX9937A-bvu-521-23-521 (Bacteroides vulgatus) (protein)
chain: LDLAPEDYYGAGNFWKEASQPKAFMLGLHAQLRSYYDMFYTLGELRGGTQRVGTSSLNTSLNYADIRSQNISEDIPGISNWNGLYSPIMQVNHFIQEVENGCTFLDDATRSRYLGQAYGMRALYYFMLYRTFGGVPLITKVDILDGKPSADKFYVERATPEATMEFIKADINKSENYFGNNTSFDAYDWSRYATLMLKAEIYMWAAKVSITGFTATGATDLQTAKTALSGIIGHFELMDNFASIFSCDNKKNTEIIFAMPFIEGEASNDGGRFLYQDAVFLGQAYGRNGKVIEKDTLNLKGTGGVFRDEYTEDFWKTFKEGDSRRDATFMEYYMKNDNGTLSEFGCVMKKRIGTINSNDNRIYISDIPVYRYADALLMMAEIENGLNNPCASYINEVRKRAYGDTFEENKYTEGSYAENELAILQERDKEFVSEGKRWFDVLRMHDASGRSLVFSANANYPGTNPILGTEEAYKMLWPVNIGTLNVNPLLTQTPGYGKK
On to B1, for which the “glycan array binding signal (z-score)” value in experiment [1] was -0.225; in [2] it was -0.18; in experiment [3], -0.293; in experiment [4], -0.205; in experiment [5] it was -0.039; in experiment [6], -0.083. The “glycan array binding signal (z-score)” value in [7] is 1.63; in experiment [8] it was -0.364; in [9], -0.387; in [10] it was 0.354; in experiment [11] it was -0.132; in experiment [12], 0.597. Further, the “glycan array binding signal (z-score)” value in experiment [13] is 0.252; in [14] it was -0.206; in experiment [15], -0.268; in [16], 0.676; in experiment [17], -0.266; in experiment [18], 2.53. Moreover, the “glycan array binding signal (z-score)” value in experiment [19] was found to be 1.35.
